System: S. aureus ATCC29213
Assay: Killing curve determination (time-kill curve)
Text: Williams & Wilkins 1996).

SMILES: CCCCN(CCCC)c1ccc(/C=C/C(=O)c2ccccc2CN2CCN(C)CC2)cc1 [A031, (E)-3-(4-Dibutylamino-phenyl)-1-[2-(4-methyl-piperazin-1-ylmethyl)-phenyl]-propenone]
- dependence of the bactericidal action: primarily dependent on the concentration of the test compound

Reference: patent US20060052600A1, “Amino-functional chalcones” (priority 2002, published 2006)
